# Experimental data as given in the supplement of paper PMC3334620.
# Whole data set: some 33,000 sequences, median “E-score (-0.5 to 0.5)” near -0.021, cut for the highest 2% near 0.32. Some of the results follow.
# Molecular target: T1, Zap1 (UniProt P47043)
# T1 sequence: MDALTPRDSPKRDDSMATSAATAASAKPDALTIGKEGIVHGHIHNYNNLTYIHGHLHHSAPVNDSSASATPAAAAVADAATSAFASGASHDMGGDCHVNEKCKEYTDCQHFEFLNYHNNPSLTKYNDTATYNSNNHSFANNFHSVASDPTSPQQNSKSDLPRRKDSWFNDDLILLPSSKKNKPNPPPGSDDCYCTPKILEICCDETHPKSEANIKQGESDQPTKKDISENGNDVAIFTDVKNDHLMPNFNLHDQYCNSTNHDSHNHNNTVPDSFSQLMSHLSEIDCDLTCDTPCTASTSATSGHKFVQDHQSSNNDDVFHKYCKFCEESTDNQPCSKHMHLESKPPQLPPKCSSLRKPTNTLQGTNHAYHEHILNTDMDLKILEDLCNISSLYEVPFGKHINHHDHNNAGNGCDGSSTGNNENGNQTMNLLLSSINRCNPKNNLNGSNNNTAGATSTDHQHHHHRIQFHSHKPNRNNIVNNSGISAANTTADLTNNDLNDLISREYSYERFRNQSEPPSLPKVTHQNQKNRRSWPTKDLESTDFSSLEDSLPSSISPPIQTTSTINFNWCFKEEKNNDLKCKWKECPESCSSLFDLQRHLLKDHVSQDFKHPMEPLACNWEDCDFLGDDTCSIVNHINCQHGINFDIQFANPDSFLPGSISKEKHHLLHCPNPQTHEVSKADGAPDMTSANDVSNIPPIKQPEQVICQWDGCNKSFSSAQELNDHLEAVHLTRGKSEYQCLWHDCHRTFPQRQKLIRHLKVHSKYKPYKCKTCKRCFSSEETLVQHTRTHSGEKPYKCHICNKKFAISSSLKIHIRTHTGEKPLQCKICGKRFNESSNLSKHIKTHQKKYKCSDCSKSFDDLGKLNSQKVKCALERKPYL
# Experiment: PBM E-score (8-mer binding enrichment) (E-score (-0.5 to 0.5)); higher = stronger / more preferred TF binding; most listed sequences are background and not binding sites
# Settings: protein concentration: 200 nM; construct: GST-full length
# How it was run: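 Universal all-10-mer Agilent arrays, double-stranded by primer extension on fresh or once-stripped slides, were probed with about 100-200 nM GST-tagged yeast transcription factors made by PURExpress. Fluorescent anti-GST detected bound protein, and masliner normalised the scans. E-scores from the Universal PBM Analysis Suite were given to each ungapped eight-base word pooled with its reverse complement.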
row,Sequence,PBM E-score
1,ATGACAGG,-0.0703
2,AAATGCAT,0.00383
3,AGATGCTA,-0.189
4,ACACGTGG,-0.0751
5,CTGTCGGA,-0.182
6,AACATGGG,0.0706
7,GGCATAAC,0.127
8,ACAAGTCA,-0.157
9,TACAGTGA,0.0125
10,CCAATCGC,0.0782
11,AGCAAGGC,-0.193
12,TCCAGCCA,-0.147
13,ACCCTTGG,0.365
14,TGCAGGCA,-0.237
15,ATTACGTC,-0.052
16,CGCATAAC,0.175
17,TATTCCGA,0.169
18,AACTTGCT,-0.17
19,ACCTGGAG,0.184
20,TACTGCAA,0.123
21,GACTTCCC,-0.108
22,CGAAACAC,0.00608
23,CAGGCCTC,-0.296
24,GCTCGACA,-0.205
25,CACGATTC,-0.0355

row,Sequence,PBM E-score
1,AACAAGGC,-0.178
2,CGCCAAAC,0.0461
3,GGAGGGAA,-0.213
4,GAACCTAA,0.194
5,CAGACAGG,-0.0636
6,GGCGATCA,-0.283
7,CCTATACC,0.0497
8,AGATTGGA,-0.0546
9,GAAGATGC,-0.163
10,ACGCGGTG,-0.148
11,AATACAAA,0.259
12,CCGATATC,-0.042
13,AAGGGCTG,0.0148
14,AATTGCCA,0.0114
15,ATTGTCCG,0.0743
16,CCATAGCG,-0.0384
17,TATCACCA,-0.101
18,AGCCAGCT,-0.262
19,AACACCTC,-0.0287
20,CGCATCGA,0.0417
21,CTCGATGA,-0.0822
22,GGTACAAA,0.279
23,CTCGCCCA,-0.0989
24,TAAAGCAA,0.0041
25,CATTGCAA,-0.0747

row,Sequence,PBM E-score
1,AATGCCGT,-0.0988
2,AGGACGAA,-0.00668
3,ATTGGGGA,-0.128
4,AATCACTA,-0.0627
5,CATGAGCC,-0.0413
6,CGCAGTAG,-0.0911
7,AGCCTTCA,-0.0688
8,CTAGTGAC,0.133
9,TGCAGCCA,-0.0893
10,GTCAGAGA,-0.0865
11,TTATGGAA,0.153
12,ATTGACGA,0.0488
13,ATGCAAAC,0.0841
14,ACTTTTAC,0.243
15,CCCATAAA,0.161
16,CAGCCTGA,-0.0954
17,AGCACGGC,-0.151
18,ACAGGAGT,0.0529
19,ATCCAATC,-0.134
20,GAGTCCCC,-0.156
21,ACTTAGAA,-7e-05
22,TACGCTGA,-0.0505
23,AGAAATAA,0.27
24,AATGGTGA,0.0455
25,GCCATAGA,-0.0985

row,Sequence,PBM E-score
1,CGGCGAAA,0.00754
2,AATCTTAA,-0.0159
3,AGACTTAA,-0.011
4,CGGGCTGA,-0.226
5,AAACAATG,0.0924
6,AATAAATG,0.145
7,CGCCTGTA,-0.332
8,ATCCGGAG,0.0525
9,GTGGGCTA,-0.00859
10,CATGTCTA,-0.118
11,AGAAGTCG,-0.233
12,ACATGCAT,-0.0789
13,GTGGATGA,0.014
14,CCCACCGG,0.222
15,ACTGGTCC,-0.101
16,CGTAGGAG,-0.158
17,ATAACTAA,0.14
18,CACGTCAG,-0.301
19,ATGTTTAC,0.173
20,AAACCTTG,0.0789
21,TCCATCAA,-0.0843
22,GGAGGTGA,0.13
23,AGTCAACC,-0.0294
24,GATGCTTA,-0.132
25,GGCATTAA,-0.131

row,Sequence,PBM E-score
1,GGCTGCAC,-0.229
2,AAGTATCT,-0.107
3,GCGCAGAA,-0.00572
4,CGCTCAAC,-0.028
5,ATAATAAT,0.109
6,ACATTCGA,0.0222
7,ACCCCCGC,-0.0913
8,AGCAGGAT,-0.0934
9,GAACAGAC,-0.0787
10,GTTGGGAA,0.0568
11,AGCCGGGC,-0.32
12,GGGATATA,-0.0315
13,GAGCAGGC,-0.247
14,AGCCCCGA,-0.135
15,TAGGCCAA,0.0266
16,ATCATAAG,0.0701
17,GTGGGTAA,0.0319
18,ACTGAAGT,-0.0118
19,GACAGGCA,-0.167
20,ATTCGATC,0.0445
21,CACGCGCC,-0.181
22,AAAGTATT,0.046
23,CGGTGTAA,-0.0163
24,GGTATAGA,0.102
25,CTCACGCA,0.112

row,Sequence,PBM E-score
1,ATCTTCTC,-0.0544
2,CTGCGCAG,-0.325
3,CCTGGATC,-0.253
4,CCATGCCC,-0.0153
5,ACTTGTTA,0.055
6,ACCCGCAA,0.234
7,CGAACCTA,0.00467
8,ATTATAAC,0.309
9,CTGGGCCA,-0.244
10,CAACGATA,0.101
11,ATGCCAAC,0.0793
12,AAATCTAG,-0.0883
13,GTGTTAGA,0.0246
14,GCGACTGA,-0.227
15,AGGAGTCG,-0.275
16,AGATCCGC,-0.282
17,CAGCACAG,-0.0595
18,GCTGGCAA,0.00702
19,ATTAGTGC,0.137
20,TCAGGCGA,-0.134
21,GAACAATA,0.275
22,CACAGCGG,-0.0445
23,AATAGGGA,-0.0102
24,ATTCCGTG,0.0147
25,ACTATCTA,-0.0107

row,Sequence,PBM E-score
1,CAGAAGAG,-0.299
2,CCGTCGCG,-0.16
3,AGGAAGAT,-0.194
4,GAGAAGAC,-0.215
5,AAATTTGT,0.143
6,GGTGTTTA,0.213
7,GTTCGGGA,0.00302
8,CCGAGAGG,0.131
9,GAGCAAGA,-0.12
10,CAGCCTCG,-0.0379
11,AGAATGTG,-0.208
12,CCTGCCCG,0.0581
13,GTGAGATA,-0.165
14,CACGCCAG,0.041
15,AGACTAAA,-0.0986
16,CCGTGCCG,-0.0543
17,CTTTACCA,0.0781
18,ATCCGAGC,-0.195
19,CCACGAAG,0.0949
20,CGTACAAA,0.196
21,GAACCTGC,0.0662
22,AAGCCGTC,-0.0916
